Data taken from the supplement of paper PMC9151546.
Repeats are few or missing, and single values can be far off.

Tests used:
CHO-K1 [1] = assay: hypodiploid nuclei frequency (% of nucleated events); higher = more hypodiploid events (aneugenic)
CHO-K1 [2] = assay: micronucleus frequency (% of nucleated events); higher = more micronuclei (genotoxic)
CHO-K1 [3] = assay: relative survival (nuclei to bead ratio vs DMSO control) (% of vehicle control); higher = more surviving cells
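Throughout, for hypodiploid nuclei frequency (% of nucleated events): hypodiploid nuclei gated on a flow cytometer with 488 nm excitation after SYTOX Green staining, cultures at 37 °C, positive controls vinblastine without S9 and cyclophosphamide with S9.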
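Throughout, for micronucleus frequency (% of nucleated events): cells lysed with nuclei stained by SYTOX Green, then micronucleus-gated events counted against nucleated events by flow cytometry with 488 nm excitation.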
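Throughout, for relative survival (nuclei to bead ratio vs DMSO control): Lysed-cell nuclei stained with SYTOX Green and counted against counting beads by flow cytometry at 488 nm excitation, with vinblastine (no S9) and cyclophosphamide (plus S9) as positive controls.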

O=Cc1ccco1 [Furfural]
Settings	hypodiploid nuclei frequency, CHO-K1 [1] [%]	micronucleus frequency, CHO-K1 [2] [%]	relative survival, CHO-K1 [3]
concentration: 4.53 (µM), S9 metabolic activation: with S9, exposure time: 3-4 hours	0.38	1.94	98.9
concentration: 4.53 (µM), S9 metabolic activation: without S9, exposure time: 24 hours	0.48	1.52	96.8
concentration: 5.66 (µM), S9 metabolic activation: with S9, exposure time: 3-4 hours	0.36	1.64	93.3
concentration: 5.66 (µM), S9 metabolic activation: without S9, exposure time: 24 hours	0.64	1.68	118
concentration: 7.07 (µM), S9 metabolic activation: with S9, exposure time: 3-4 hours	0.32	1.94	99.9
concentration: 7.07 (µM), S9 metabolic activation: without S9, exposure time: 24 hours	0.64	1.22	97.3
concentration: 8.84 (µM), S9 metabolic activation: with S9, exposure time: 3-4 hours	0.34	2.06	93.3
concentration: 8.84 (µM), S9 metabolic activation: without S9, exposure time: 24 hours	0.7	1.64	114
concentration: 11.1 (µM), S9 metabolic activation: with S9, exposure time: 3-4 hours	0.28	2.1	81.2
concentration: 11.1 (µM), S9 metabolic activation: without S9, exposure time: 24 hours	0.62	1.4	105
concentration: 13.8 (µM), S9 metabolic activation: with S9, exposure time: 3-4 hours	0.22	1.9	89.7
concentration: 13.8 (µM), S9 metabolic activation: without S9, exposure time: 24 hours	0.48	1.64	88.6
concentration: 17.3 (µM), S9 metabolic activation: with S9, exposure time: 3-4 hours	0.28	2.24	104
concentration: 17.3 (µM), S9 metabolic activation: without S9, exposure time: 24 hours	0.76	2	109
concentration: 21.6 (µM), S9 metabolic activation: with S9, exposure time: 3-4 hours	0.24	1.86	115
concentration: 21.6 (µM), S9 metabolic activation: without S9, exposure time: 24 hours	0.54	1.54	103
concentration: 27 (µM), S9 metabolic activation: with S9, exposure time: 3-4 hours	0.28	1.38	105
concentration: 27 (µM), S9 metabolic activation: without S9, exposure time: 24 hours	0.74	1.74	101
concentration: 33.7 (µM), S9 metabolic activation: with S9, exposure time: 3-4 hours	0.26	1.38	86.8
concentration: 33.7 (µM), S9 metabolic activation: without S9, exposure time: 24 hours	0.48	1.78	144
concentration: 42.2 (µM), S9 metabolic activation: with S9, exposure time: 3-4 hours	0.36	2.12	99.2
concentration: 42.2 (µM), S9 metabolic activation: without S9, exposure time: 24 hours	0.48	1.32	129
concentration: 52.7 (µM), S9 metabolic activation: with S9, exposure time: 3-4 hours	0.2	2.34	79.6
concentration: 52.7 (µM), S9 metabolic activation: without S9, exposure time: 24 hours	0.46	1.64	115
concentration: 65.9 (µM), S9 metabolic activation: with S9, exposure time: 3-4 hours	0.1	2.12	75.8
concentration: 65.9 (µM), S9 metabolic activation: without S9, exposure time: 24 hours	0.7	1.54	101
concentration: 82.3 (µM), S9 metabolic activation: with S9, exposure time: 3-4 hours	0.32	2.06	82.3
concentration: 82.3 (µM), S9 metabolic activation: without S9, exposure time: 24 hours	0.5	2.16	133
concentration: 103 (µM), S9 metabolic activation: with S9, exposure time: 3-4 hours	0.24	3.58	74.1
concentration: 103 (µM), S9 metabolic activation: without S9, exposure time: 24 hours	0.72	1.78	97.8
concentration: 129 (µM), S9 metabolic activation: with S9, exposure time: 3-4 hours	0.18	1.76	109
concentration: 129 (µM), S9 metabolic activation: without S9, exposure time: 24 hours	1.08	1.98	98.3
concentration: 161 (µM), S9 metabolic activation: with S9, exposure time: 3-4 hours	0.48	3.26	77.2
concentration: 161 (µM), S9 metabolic activation: without S9, exposure time: 24 hours	0.84	2.42	132
concentration: 201 (µM), S9 metabolic activation: with S9, exposure time: 3-4 hours	0.16	2.88	83.9
concentration: 201 (µM), S9 metabolic activation: without S9, exposure time: 24 hours	1.04	2.56	112

O=c1c(-c2ccc(O)cc2)coc2cc(O)cc(O)c12 [Genistein]
Settings	hypodiploid nuclei frequency, CHO-K1 [1] [%]	micronucleus frequency, CHO-K1 [2] [%]	relative survival, CHO-K1 [3]
concentration: 4.5 (µM), S9 metabolic activation: with S9, exposure time: 3-4 hours	0.18	1.68	101
concentration: 4.5 (µM), S9 metabolic activation: without S9, exposure time: 24 hours	0.6	2.66	130
concentration: 5.63 (µM), S9 metabolic activation: with S9, exposure time: 3-4 hours	0.26	1.76	110
concentration: 5.63 (µM), S9 metabolic activation: without S9, exposure time: 24 hours	0.86	2.52	93.2
concentration: 7.04 (µM), S9 metabolic activation: with S9, exposure time: 3-4 hours	0.2	1.6	109
concentration: 7.04 (µM), S9 metabolic activation: without S9, exposure time: 24 hours	0.58	2.26	98.7
concentration: 8.8 (µM), S9 metabolic activation: with S9, exposure time: 3-4 hours	0.32	1.82	103
concentration: 8.8 (µM), S9 metabolic activation: without S9, exposure time: 24 hours	0.78	2.56	97.1
concentration: 11 (µM), S9 metabolic activation: with S9, exposure time: 3-4 hours	0.3	2.26	109
concentration: 11 (µM), S9 metabolic activation: without S9, exposure time: 24 hours	0.68	2.78	93.9
concentration: 13.7 (µM), S9 metabolic activation: with S9, exposure time: 3-4 hours	0.66	3.78	86.9
concentration: 13.7 (µM), S9 metabolic activation: without S9, exposure time: 24 hours	0.84	5.02	76.2
concentration: 17.2 (µM), S9 metabolic activation: with S9, exposure time: 3-4 hours	1.48	7.84	67.1
concentration: 17.2 (µM), S9 metabolic activation: without S9, exposure time: 24 hours	0.74	4.14	79.9
concentration: 21.5 (µM), S9 metabolic activation: with S9, exposure time: 3-4 hours	1.47	10.3	64.1
concentration: 21.5 (µM), S9 metabolic activation: without S9, exposure time: 24 hours	0.82	4.56	74.8
concentration: 26.8 (µM), S9 metabolic activation: with S9, exposure time: 3-4 hours	–	–	33
concentration: 26.8 (µM), S9 metabolic activation: without S9, exposure time: 24 hours	0.52	5.34	70.4
concentration: 33.6 (µM), S9 metabolic activation: with S9, exposure time: 3-4 hours	–	–	28.1
concentration: 33.6 (µM), S9 metabolic activation: without S9, exposure time: 24 hours	0.48	9.42	79.9
concentration: 41.9 (µM), S9 metabolic activation: with S9, exposure time: 3-4 hours	–	–	14.6
concentration: 41.9 (µM), S9 metabolic activation: without S9, exposure time: 24 hours	0.5	11.7	55.9
concentration: 52.4 (µM), S9 metabolic activation: with S9, exposure time: 3-4 hours	–	–	11.1
concentration: 52.4 (µM), S9 metabolic activation: without S9, exposure time: 24 hours	0.66	14.1	52.5
concentration: 65.5 (µM), S9 metabolic activation: with S9, exposure time: 3-4 hours	–	–	12.6
concentration: 65.5 (µM), S9 metabolic activation: without S9, exposure time: 24 hours	0.39	11.8	40.5
concentration: 81.9 (µM), S9 metabolic activation: with S9, exposure time: 3-4 hours	–	–	9.21
concentration: 81.9 (µM), S9 metabolic activation: without S9, exposure time: 24 hours	0.57	8.01	41.3
concentration: 102 (µM), S9 metabolic activation: with S9, exposure time: 3-4 hours	–	–	10.3
concentration: 102 (µM), S9 metabolic activation: without S9, exposure time: 24 hours	0.38	5.35	48.1
concentration: 128 (µM), S9 metabolic activation: with S9, exposure time: 3-4 hours	–	–	7.86
concentration: 128 (µM), S9 metabolic activation: without S9, exposure time: 24 hours	–	–	33.4
concentration: 160 (µM), S9 metabolic activation: with S9, exposure time: 3-4 hours	–	–	9.73
concentration: 160 (µM), S9 metabolic activation: without S9, exposure time: 24 hours	–	–	30.4
concentration: 200 (µM), S9 metabolic activation: with S9, exposure time: 3-4 hours	–	–	11.5
concentration: 200 (µM), S9 metabolic activation: without S9, exposure time: 24 hours	–	–	34
